The full ranking holds about 4,500 sequences; the median of “median log2 fold change of GCK-ALFA target abundance (FLAG IP / Myc IP barcode read proportion)” is about 0.078, and the lowest 2% start at about -0.6. Some of the results follow.
B1: GBRAP_160_4355 (protein)
chain: SETVEALIKRIREVTDEVIAAIDTESVEEVRVIAAGEFGAVFMEAAEDPRMSDEMEDVILQGRDDILAFLTANADASVAEIKAGIRAITDATIARLKALA
B2: GBRAP_160_4622 (protein)
chain: SEKLKKALELVEEARDEVLSLIPELSTEEFAHALEAEFGSVILYLLEEGYISEETEDEMMEVVDEAVAHLLAHPDLSPEERRALVEETAEEIKEIIKKNS
B3: GBRAP_159_3957 (protein)
chain: MEEVLEELREELEKLGASEEQIEAALEAVELAYEGEDAGSIAAHLVSMHTVLGASTEQILVVLKHLPEELRKEVAELLAEVARELGDEELAEALEELLEE
B4: GBRAP_128_3195 (protein)
chain: VSPAAVAALRALAERVIATKSDADIDAFAAAVAAALKAGEITLDELEEIVAALGEGLDADTLARVADALRAALADVGADARATALGVLGEKIYEKEEEAE
B5: GBRAP_160_4265 (protein)
chain: SEETKKLIEDLDKDKEEILELVDEISSEELKTFAVVSLGSHLMEAIDLGVVTDEEEDELLKIIDDLEKELTANKNAPKEVKKEIITKHYEKFKELLKKSK
B6: GBRAP_196_5416 (protein)
chain: KYLEEIKELEKESEEEVKDIELSDWTIVVNFTPENLEEEAEKTAEIAKDLGNPEIVIVHDGTLEEMLEALKLLREKLKEKGVVSKISVDSRAREEAEEKA
B7: GBRAP_74_6545 (protein)
chain: NAAEADAIIATLETGSREERRAALESIPLDFSDEDLERLLLAVARLAIEAAEAGDEELLEAATEALVRLYDRLAGKPLSPETDAALVAALAAAVEAEKKR
B8: GBRAP_184_5239 (protein)
chain: MVLERTIKAENEEELREKMKEVMEEAEKKGAKVRLLIEVEKLTREKAETLAEMIKEMAAKGLLELVGVVSSEPISEEIVDLLVEAADEAGVKLVIAEPEI
B9: GBRAP_55_6431 (protein)
chain: SEDDEDTRLAAETLLELAVANVDDPEKLAEAVDRLMEVAKDKEVTATASPLPKEEAEKIYEKLKKELEKAAKEHGLEVKVELIYDEKTGTASIKVTVKPK
B10: GBRAP_160_4718 (protein)
chain: SEAVEEAIREVEEALREVAALRDEMTADELANLVETLIGSTLMELLDEGKVNDELEETLREIADRAAAVVRATYDAPREVFEAALEEVAREGRERLERLS
B11: GBRAP_160_4787 (protein)
chain: MERVRKASELLREALEEALELSEGETPEERVNIFDVEIGAAIMELRELGLLNDEEEEVLAEVRDRLVAEIRANPDLTPEELRALAEEAVEEFERRLKELE
B12: GBRAP_166_4917 (protein)
chain: SMEERVEEAKKRLEKVIEEGKADPSMTDEQITVEMAYELAEILEEIDDREEKLAVVRMGLELAKENGLDPLRLARLTVSLSDFDDEERDEVDEIAEEILK
B13: GBRAP_125_2993 (protein)
chain: SEEEDLADLARLLRALGFDDEDVAEAVELARRHGIRGTLYAALKALGWDELADLVAQLSEEETREALRRVAAELAARPDLTPEEVRALLLEVLRAILAER
B14: GBRAP_11_2829 (protein)
chain: KKEKLKELAEKAKAVADQLAALIASGAPTQAELDALLAKAKALLKETKEFGDEALAKEAEILVEEIEAAIADPATRQQHLQEALAAARVLEGQYLLLYEE
B15: GBRAP_95_7034 (protein)
chain: EDDKLALESALEVAVAAAELGDEEAAARALKEALELLKKAGKVKLDPELLKETIEVIREVGVKKLPKEEVLELLELLKESAETEEVKKLAEEAIEEVKKR
B16: GBRAP_184_5252 (protein)
chain: KVLERTIEAENVEELKEKMAEINKEALATGADVIIELKAKEVTKEMIEALFNSIKELKAKGYTGKVTVGIDADLSEEMIDYAIELADEAGVNLVVALPEE
B17: GBRAP_184_5100 (protein)
chain: ATYEAVVEAATAEEAIAQLEEAVAEAAAAGAALNVLLKGEGLSAEELVEIVRALGAAAAAAGIPRVTLGIDTPVTEEDADKLIAAADAAGIRLVLALSEE
B18: GBRAP_137_3622 (protein)
chain: KKVTITFYEEDGVAIAEITADTSVDKEKVLALVEEVAEEHGVQLVEALVEPDEPLVLYLVGTPEQVIAAVKDLIERLKSELGIEVVLESEGAEELVEEVK
B19: GBRAP_74_6523 (protein)
chain: MEEKLKELKEAAEAGDVEKAVELLREIIETGDLETIEEAARIMVEFVEKNLEKLTPEELELLADALAELADELMERGGDSEVINAVATAAVRLEEALAAK

target: GABARAP, O95166; assay: median log2 fold change of GCK-ALFA target abundance (FLAG IP / Myc IP barcode read proportion) (log2 ratio); each designed protein is fused to an ALFA-tag nanobody in HEK293 cells to bring the named protein to FLAG-tagged glucokinase (GCK); Myc marks an untargeted standard; higher = target protein stabilised (more abundant); conditions: target protein: 3xFLAG-MCP-GCK-ALFA reporter; HEK293 landing pad (RPLP)
Sequence (O95166 whole entry, the tested form may be a part): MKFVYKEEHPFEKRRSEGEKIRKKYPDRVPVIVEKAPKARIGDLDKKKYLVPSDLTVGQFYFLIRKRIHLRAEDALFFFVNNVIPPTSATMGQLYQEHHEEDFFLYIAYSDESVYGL
Outline: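 Binders fused to an ALFA nanobody were recombined as a library into HEK293 landing-pad cells, which were induced with 2 μg mL^−1 doxycycline and then transfected to express a FLAG-tagged target and a Myc-tagged standard. After 48 h, circular RNA barcodes recovered by anti-FLAG and anti-Myc immunoprecipitation of lysates were reverse transcribed, amplified and sequenced. Each binder's target abundance is the median log2 ratio of FLAG to Myc barcode read proportions, from barcodes present at ≥10^−7 in both replicates, binders carrying ≥3 barcodes per replicate, a 10^−6 pseudocount and pooled replicates.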

Binder | median log2 fold change
B1 | 0.143
B2 | 0.0582
B3 | -0.249
B4 | 0.27
B5 | -0.385
B6 | 0.451
B7 | -0.222
B8 | 0.163
B9 | 0.23
B10 | 0.095
B11 | 0.0992
B12 | 0.0707
B13 | 0.00558
B14 | 0.197
B15 | 0.352
B16 | -0.0723
B17 | -0.0775
B18 | -0.288
B19 | 0.153
